Assay results from PMC4336329 (PLoS ONE, 2015).
The whole screen tested about 310,000 compounds, of which about 14,000 (4.5%) showed an effect of 50% or more. The effect is printed as a negative number. Some of the results follow.

Biological target: human ether-à-go-go-related gene (hERG) potassium channel (human, UniProt Q12809)
Assay: primary screen, population patch clamp on CHO cells stably expressing hERG
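Also: peak tail current of the secondary pulse compared with the same well before compound.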

human ether-à-go-go-related gene (hERG) potassium channel, sequence (Q12809 whole entry, looked up): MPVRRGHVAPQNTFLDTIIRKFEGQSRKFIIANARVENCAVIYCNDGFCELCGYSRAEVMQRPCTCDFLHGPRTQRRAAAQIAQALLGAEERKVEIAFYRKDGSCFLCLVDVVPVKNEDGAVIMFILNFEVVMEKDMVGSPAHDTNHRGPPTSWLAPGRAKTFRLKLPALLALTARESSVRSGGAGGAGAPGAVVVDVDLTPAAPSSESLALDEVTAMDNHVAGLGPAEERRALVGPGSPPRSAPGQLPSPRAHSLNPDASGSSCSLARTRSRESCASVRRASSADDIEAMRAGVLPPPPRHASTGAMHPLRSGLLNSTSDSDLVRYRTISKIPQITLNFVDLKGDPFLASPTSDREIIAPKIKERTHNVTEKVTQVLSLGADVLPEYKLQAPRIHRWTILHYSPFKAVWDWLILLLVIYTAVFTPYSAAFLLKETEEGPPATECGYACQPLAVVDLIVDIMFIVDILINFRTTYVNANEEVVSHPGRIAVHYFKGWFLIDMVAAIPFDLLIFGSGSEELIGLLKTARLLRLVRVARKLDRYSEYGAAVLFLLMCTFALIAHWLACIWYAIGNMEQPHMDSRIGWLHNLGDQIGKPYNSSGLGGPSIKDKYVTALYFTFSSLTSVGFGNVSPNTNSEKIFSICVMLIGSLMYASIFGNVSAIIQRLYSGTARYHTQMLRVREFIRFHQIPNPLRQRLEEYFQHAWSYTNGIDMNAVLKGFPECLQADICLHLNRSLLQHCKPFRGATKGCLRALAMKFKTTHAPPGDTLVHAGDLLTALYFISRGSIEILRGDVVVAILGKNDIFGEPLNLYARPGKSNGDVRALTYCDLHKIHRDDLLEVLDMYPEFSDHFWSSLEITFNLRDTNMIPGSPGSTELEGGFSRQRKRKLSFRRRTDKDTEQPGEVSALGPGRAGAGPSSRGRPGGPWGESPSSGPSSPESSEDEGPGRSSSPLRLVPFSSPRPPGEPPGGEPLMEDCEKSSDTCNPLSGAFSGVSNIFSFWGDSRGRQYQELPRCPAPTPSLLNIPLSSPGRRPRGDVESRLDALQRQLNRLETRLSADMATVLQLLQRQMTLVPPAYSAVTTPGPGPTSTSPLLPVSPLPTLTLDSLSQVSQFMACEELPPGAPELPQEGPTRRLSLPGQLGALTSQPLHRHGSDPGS

Structure (SMILES)	hERG current change (%, negative = inhibition) at 10uM [%]
CN=C1SC(CC(=O)Nc2ccc(N3CCOCC3)cc2)C(=O)N1C (stereo not shown)	-6.91
CC1CCCC(N2CCN(S(=O)(=O)c3ccccc3)CC2)C1.O=C(O)C(=O)O (stereo not shown)	5.88
O=C(COc1cccc(F)c1)N[C@@H](Cc1ccccc1)c1nc2ccccc2[nH]1	20.3
CCn1c2ccccc2c2nc3ccccc3nc21	-0.354
CCOC(=O)C1=C(CSCc2ccccc2)NC(=O)NC1c1cc(C)ccc1C (stereo not shown)	-3.71
Cc1ccccc1CN(C)CC(=O)Nc1c(C)cccc1C(C)C	5.19
CN(c1ccc(F)cc1)S(=O)(=O)c1ccc(Cl)c(C(=O)NC2(C)CCS(=O)(=O)C2)c1 (stereo not shown)	1.85
CC1Sc2ccc(S(=O)(=O)CCC(=O)NCc3cccs3)cc2NC1=O (stereo not shown)	7.94
Cc1csc(NC(=O)c2cccn2C)n1	5.66
Cc1ccc(OCCn2c3ccccc3n3nc(C)c(=O)nc23)cc1	-2.12
CCN1CCN(c2ncc(C(=O)N3CCCc4ccccc43)c3ccccc23)CC1	-46.6
CCc1nc2ccccc2n1Cc1ccc(OC)c(OC)c1	-9.59
COc1ccc(OC)c(NC(=O)C2CC(=O)n3ncnc3N2)c1 (stereo not shown)	-3.37
O=C(N/N=C/c1cccc(O)c1)c1ccc(COc2ccccc2Br)cc1	-9.52
COC(=O)c1c(C)nc2ccccc2c1C(=O)O	14
O=C(Cc1csc(-c2ccc(F)cc2)n1)Nc1cccc(S(=O)(=O)NC2=NCCC2)c1	-18.1
Cc1cc2c(c(=O)o1)C(c1ccc([N+](=O)[O-])o1)C(C#N)=C(N)O2 (stereo not shown)	-15
Cc1ccc(S(=O)(=O)Nc2ccccc2F)cc1C(=O)N1CCCC1	-18.3
FC(F)(F)c1ccc(CN2CCN(Cc3ccco3)CC2)cc1.O=C(O)C(=O)O	0.168
O=C(CCCNC(=O)c1ccc(Cl)cc1)Nc1cccc(S(=O)(=O)N2CCCCC2)c1	-20.2
CCOC(=O)Cc1csc(SCC(=O)NC(C)C23CC4CC(CC(C4)C2)C3)n1 (stereo not shown)	-20.2
CC(/C=N/NC(=O)c1cnccn1)=C\c1ccco1	6.37

Structure (SMILES)	hERG current change (%, negative = inhibition) at 10uM [%]
Cc1ccccc1C(=O)NC1CCN(Cc2nnnn2Cc2ccc(F)cc2)CC1	-40.9
O=S(=O)(c1ccccc1)N1CCN(C(=S)Nc2ccc(Br)cc2)CC1	12.1
O=C(NC1CC1)c1ccc(COc2ccc(F)cc2)o1	-5.67
O=C(Nc1nc2ccccc2s1)c1ccc(N2CCCCC2)c([N+](=O)[O-])c1	6.67
Cc1cc(/C=C2/C(=O)NC(=O)N(C)C2=O)c(C)n1-c1ccccc1	14.6
CCN(CC(=O)N1CCCC1)S(=O)(=O)c1cc(C)ccc1OC	19.1
Cc1ccn2c(=O)nc(SCC(=O)NC3CCCCC3)nc2c1	6.35
Cc1ccc(C(C(=O)NC(C)(C)C)N(C(=O)c2csnn2)c2cccc(F)c2)o1 (stereo not shown)	7.54
O=C(CNC(=O)c1ccc(OC(F)F)cc1)NCC1(N2CCOCC2)CCCCC1	-68.5
c1cnc2c(Oc3ncnc4sccc34)cccc2c1	-4.99
CC(C)c1ccc(/C=N/N2CCN(c3ccccn3)CC2)cc1	8.39
Cc1cccc(N2CC(C(=O)NCCC3=CCCCC3)CC2=O)c1C (stereo not shown)	-4.77
CC(Nc1nc(-c2ccc(F)cc2)cs1)c1nc2cc(Cl)c(Cl)cc2n1CCOCCO (stereo not shown)	-27.2
CC1CCCN(C(=O)c2ccc(N3CC4CC(C3)c3cccc(=O)n3C4)c([N+](=O)[O-])c2)C1 (stereo not shown)	-29.7
Cc1ccc(-c2noc(CSc3nnc(Cc4ccccc4)n3-c3cccc(C)c3)n2)cc1	-5.49
CCN1C(=O)N(c2cccc3ccccc23)C(C)=CC1(C)C	-1.91
Cc1[nH]n(-c2ccccc2)c(=O)c1/C=N/NC(=O)c1ccccc1F	2.32
CC(=O)N1c2ccc(S(=O)(=O)N3CCCC3)cc2CC1C(=O)Nc1cc(C)cc(C)c1 (stereo not shown)	-4.81
Nc1c(C(=O)Nc2nc3ccccc3s2)sc2nc(-c3cccs3)ccc12	1.44
COc1cc(/C=N/NC(=O)c2ccccc2)ccc1OS(=O)(=O)c1ccccc1	1.85
COC(=O)Nc1ccc2c(c1)N(C(=O)CCN1CCOCC1)c1ccccc1S2.Cl	2.68
CCCNC(=O)CCc1cc(C(C)(C)C)c(O)c(C(C)(C)C)c1	-5.21

Structure (SMILES)	hERG current change (%, negative = inhibition) at 10uM [%]
Cc1ccc(NCc2nnc(SCCN3CCCCC3)n2CC2CCCO2)c(C)c1 (stereo not shown)	-58.5
Cc1ccc(NC(=O)CN(c2ccccc2)S(=O)(=O)N(C)C)cc1C	3.15
CCCCC(=O)N(c1ccc(C)c(C)c1)C1C=CS(=O)(=O)C1 (stereo not shown)	13.3
CCn1c(SCC(=O)N2CCN(c3ccccc3)CC2)nc2c(c1=O)SC(C)C2 (stereo not shown)	-48.2
CC(C)COP(=O)(OCC(C)C)C(Nc1ccccc1)c1ccccc1 (stereo not shown)	-18.7
Cc1c(C(=O)N2CCN(C(=O)c3ccccc3)CC2)oc2ccc(F)cc12	-44.8
COC(=O)C(=C/C(C)=C/c1cccnc1)C(=O)OC	-2.68
CCC(=O)NNc1ccc(Br)cc1	8.48
Cc1nnc(SCCn2c(N3CCC(C)CC3)nc3c2c(=O)[nH]c(=O)n3C)s1	6.44
CCNc1nc(NCC)nc(N(C)n2cnnc2)n1	-7.9
CCOC(=O)C1CCCN(S(=O)(=O)c2ccc(C)cc2)C1 (stereo not shown)	-2.86
CCC1[NH+]=C(SC)NC(C)=C1C(=O)c1ccccc1.[I-] (stereo not shown)	6.67
COCCn1c(SCC(=O)Nc2cccc(C(=O)OC)c2)nc2ccccc2c1=O	-42.5
COc1ccc(N2CCN(c3nc(NC(C)(C)C)nc(N4CCCCC4)n3)CC2)cc1	19.6
CCN1C(=O)c2ccccc2S(=O)(=O)c2ccc(C(=O)NCCCN(CC(C)C)CC(C)C)cc21	-12.7
Nc1nc2c(F)cccc2s1	31.2
CCOC(=O)Nc1c(C)n(C)n(-c2ccccc2)c1=O	8.5
N#C/C(=C\Nc1ccc2c(c1)OCCO2)c1nc2ccccc2[nH]1	-28.8
COc1ccc(NC(=O)COc2coc(CN3CCc4ccccc4C3)cc2=O)cc1	0.124
O=S(=O)(O)c1nc2ccccc2n1Cc1cccc2ccccc12	10.8
CCc1nnc(NC(=O)C(=O)NCCOC(=O)c2ccccc2Cl)s1	5.68
O=S(=O)(c1ccc(F)cc1)N1CCN=C1SCc1cccc(F)c1	4.76

Structure (SMILES)	hERG current change (%, negative = inhibition) at 10uM [%]
CCCc1cc(=O)[nH]c(SCC(=O)Nc2cc(C)on2)n1	-70.9
O=C(NCc1ccncc1)C(=O)Nc1nc(C23CC4CC(CC(C4)C2)C3)cs1	-5.7
Cc1nn(C)c(NC(=O)c2ccccc2Cl)c1Cl	23.1
COc1cccc(CNC(=O)C2CCC(CNS(=O)(=O)c3cccc4nsnc34)CC2)c1 (stereo not shown)	-29.4
CCc1cccc(N(C(=O)c2csnn2)C(C(=O)NC2CCCCC2)c2ccncc2)c1 (stereo not shown)	7.18
CC(C)(C)CC(=O)Nc1ccc(S(=O)(=O)N2CCCC2)cc1	4.31
CC(C)OCC(O)CN1CCN(CCN2C(=O)c3cccc4cccc(c34)C2=O)CC1.Cl (stereo not shown)	-51.7
CNC(=O)C1CC(=O)N(c2ccc(OCC(=O)NCc3ccccc3)cc2)C1 (stereo not shown)	11.7
CC1Cc2ccccc2N1C(=O)CN1CCN(S(=O)(=O)c2cccs2)CC1 (stereo not shown)	-21.3
COc1ccc(N2CC(NS(=O)(=O)c3cccs3)CC2=O)cc1 (stereo not shown)	12
NC(=O)c1ccc(NC(=O)CNC(=O)c2sc3ccccc3c2Cl)cc1	0.282
COC(=O)c1ccc(OC(=O)C2CC(=O)N(c3ccc(C)cc3C)C2)cc1 (stereo not shown)	11.4
Cc1c(Cc2ccccc2)c(=O)oc2cc(OCC(N)=O)ccc12	5.27
CC1(C)Cc2c(cnn2-c2ccc(F)cc2)C(NC(=O)CCCN2CCCCC2=O)C1 (stereo not shown)	2.89
Cc1cc(Cl)c(S(=O)(=O)NC(C(=O)O)C(C)C)cc1OCC(=O)NC1CCCCC1 (stereo not shown)	9.54
Cc1cccc2nc3c(nc12)CCCC3	2.11
COc1ccc(CN2CCOCC2)cc1	10.7
C=CCN1C(=O)N(CC=C)c2cccc3cccc1c23	13.3
OCCCc1nc2n(n1)C(c1ccccc1)C=C(c1ccc(F)cc1)N2 (stereo not shown)	-12.8
O=C(CCCCO)c1ccc(O)c(Cl)c1	2.35
CC(=O)Oc1ccc(/C(C)=N/N2CCN(Cc3ccc(C)cc3)CC2)cc1	-73.2
CCn1c(SCc2nc3ccccc3[nH]2)nnc1-c1cccs1	-33.6
